The results in this text go back to PubChem BioAssay AID1745853 (National Center for Advancing Translational Sciences (NCATS), 2022).

“And” between values parts separate entries of the source, which are not always exact repeats. Identical values can stand only once. The list shows a part of the results. Shown are side measurements of this screen, not its main read-out; they come without a call.

Test in all cases: Primary Screen for Target Class Profiling of Small Molecule Inhibitors of Methyltransferases
Assay [1] addresses Glycine N-methyltransferase (Homo sapiens) (UniProt Q14749). As to conditions: purified enzyme, MTase-Glo SAH luminescence; measured here: GNMT inhibition; at 40 µM; stronger effect = lower value. The procedure, abridged: (§1)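 Each enzyme was assayed with SAM and its substrate. SAH formation detected by MTase-Glo luminescence; single-point 40 uM screen[…].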
Assay [2] addresses Guanidinoacetate N-methyltransferase (Homo sapiens) (UniProt Q14353). As to conditions: purified enzyme, MTase-Glo SAH luminescence; measured here: GAMT inhibition; at 40 µM; stronger effect = lower value. The essentials: as §1
Assay [3] concerns the target Histamine N-methyltransferase (Homo sapiens) (UniProt P50135). As to conditions: purified enzyme, MTase-Glo SAH luminescence; measured here: HNMT inhibition; at 40 µM; stronger effect = lower value. The procedure, abridged:
as §1

Assay [4] concerns the target Nicotinamide N-methyltransferase (Homo sapiens) (UniProt P40261). As to conditions: purified enzyme, MTase-Glo SAH luminescence; measured here: NNMT inhibition; at 40 µM; stronger effect = lower value. The procedure, abridged:
as §1

In assay [5] the target is Phenylethanolamine N-methyltransferase (Homo sapiens) (UniProt P11086). As to conditions: purified enzyme, MTase-Glo SAH luminescence; measured here: PNMT inhibition; at 40 µM; stronger effect = lower value. The procedure, abridged: as §1
% is scaled to controls: 0 for no effect and ±100 for the full control effect.

Turning to `CNC(=O)[C@@H](c1ccccc1)N1CCc2cc(OC)c(OC)cc2[C@@H]1CCc1ccc(C(F)(F)F)cc1`, the activity change, negative = inhibition in assay [1] was -0.898%; in assay [2], -8.03%; in assay [3], -3.7%; in assay [4], -28%; in assay [5], -8.57%.

On to `O=C1CCC(CCC(=O)N2CCC(c3ccc(F)cc3)C2)(Cc2ccc3ccccc3c2)N1` (stereo not given), for which the activity change, negative = inhibition is -1.4% in assay [1]; -8.5% in assay [2]; 1.96% in assay [3]; 1.5% in assay [4]; 2.21% in assay [5].

In the case of `Cc1ccc(NC(=O)Cn2nc3n(CC(C)C)c(=O)c4ccc(C(=O)NCC(C)C)cc4n3c2=O)c(C)c1`, the activity change, negative = inhibition in assay [1] came to 5.06%; in assay [2], 0.219%; in assay [3], 8.06%; in assay [4], 1.7%; in assay [5], 3.45%.

Take `CC1(CCC(=O)O)C(=O)C=CC23CC4CC(OC4(C)C2O)C13` (stereo not given): the activity change, negative = inhibition in assay [1] is -3.35%; in assay [2] it was -4.12%; in assay [3], 2.12%; in assay [4] it was -12.5%; in assay [5], 3.49%.

As for `Cc1ccccc1CN1Cc2nc(-c3ccccc3)ccc2OCC1=O`, the activity change, negative = inhibition in assay [1] was -15%; in assay [2] it was -7.05%; in assay [3] it was -5.89%; in assay [4], -22.3%; in assay [5], -21%.

`COc1ccc(-c2n[nH]n3c2nc(=O)c2ccc(C(=O)NCc4cccc(OC)c4)cc23)cc1`: the activity change, negative = inhibition in assay [1] was -13.9%; in assay [2] it was 0%; in assay [3], 2.62%; in assay [4], 4.24%; in assay [5], -4.17%.

With `CCOC(=O)[C@H](CCc1ccccc1)N[C@H]1CCCN2CCC[C@@H](C(=O)O)N2C1=O`, the activity change, negative = inhibition is 5.66% in assay [2], -9.09% in assay [4] and 4.85% in assay [5].

Turning to `CCC1CCCCN1C(=O)Cn1c(=O)oc2cc(S(=O)(=O)N3CC(C)CC(C)C3)ccc21` (stereo not given), the activity change, negative = inhibition in assay [1] was 3.58%; in assay [2] it was 0%; in assay [3], 9.55%; in assay [4] it was -6.67%; in assay [5] it was -4.03%.

Turning to `CCCNC(=O)CCn1ccc2cc(S(=O)(=O)N3CCCCC3)ccc21`, the activity change, negative = inhibition in assay [1] amounted to 2.43%; in assay [2], 0%; in assay [3], 5.53%; in assay [4] it was 7.8%; in assay [5], 1.07%.

Take `COc1ccc(-c2cc(C[C@H]3CNCC[C@H]3CC(=O)N3CCOCC3)no2)cc1`: the activity change, negative = inhibition in assay [1] is 1.52%; in assay [2], -0.154%; in assay [3], 1.38%; in assay [4] it was -0.637%; in assay [5] it was 2.63%.

For `CC(=O)Nc1c2n(c3ccccc13)CC(C)(C(=O)NC1CCCCC1)N(C1CCC(C)CC1)C2=O` (stereo not given), the activity change, negative = inhibition in assay [1] was 2.19%; in assay [2], -0.44%; in assay [3], -3.4%; in assay [4] it was -6.29%; in assay [5] it was 1.05%.

Consider `O=C(c1ccc(/C=C/c2n[nH]c3ccccc23)cc1)N1CCNCC1`, for which the activity change, negative = inhibition is -6.88% in assay [1]; -4.74% in assay [2]; 3.74% in assay [3]; -18.7% in assay [4]; -46.1% in assay [5].

In the case of `O=C(Cn1ccc2cc(S(=O)(=O)N3CCCC3)ccc21)NCc1ccc(Cl)cc1`, the activity change, negative = inhibition stood at 5.31% in assay [1]; 0.405% in assay [2]; 3.16% in assay [3]; 2.44% in assay [4]; 1.43% in assay [5].

`CCS(=O)(=O)Nc1ccc(C(=O)NCc2cc3n(n2)CCNC3)cc1`: the activity change, negative = inhibition in assay [1] was -4.54%; in assay [2], -9.2%; in assay [3] it was -2.21%; in assay [4] it was -13.3%; in assay [5] it was -10%.

`Cc1nc(C2CC(O)C2)cc(N2CCN(c3cnn(C)c(=O)c3)CC2)n1` (stereo not given): the activity change, negative = inhibition in assay [1] is -3.98%; in assay [2], -2.15%; in assay [3], 0.165%; in assay [4], -7.29%; in assay [5], 0.269%.

On to `COc1cc(F)ccc1-c1cc(-c2ccc(=O)[nH]c2)c2cncn2c1`, for which the activity change, negative = inhibition is -88.5% in assay [1]; -86.8% in assay [2]; -36.6% in assay [3]; -49.6% in assay [4]; -45.8% in assay [5].

On to `COc1ccc(CCN2C(=O)c3cc4occc4n3CC2(C)C(=O)NC2CCC(C)CC2)cc1OC` (stereo not given), for which the activity change, negative = inhibition in assay [1] was -4.64%; in assay [2], -1.23%; in assay [3], -2.47%; in assay [4], -28.8%; in assay [5], -9.48%.

In the case of `COc1cccc(OC)c1-c1cc(C(=O)N[C@@H](CC(C)C)C(=O)O)nn1-c1ccnc2cc(Cl)ccc12`, the activity change, negative = inhibition in assay [1] is -4.48%; in assay [2], 4.99%; in assay [3] it was 11.3%; in assay [4] it was -24.9%; in assay [5], 3.16%.

`COc1ccc([C@@]2(O)c3c(ccc4c3OC(C)(CCC=C(C)C)C=C4)NC(=O)[C@@H]2OC)cc1` (stereo not given in full): the activity change, negative = inhibition in assay [1] was -1.01%; in assay [2], -2.65%; in assay [3], 5.93%; in assay [4] it was -18.2%; in assay [5], -5.55%.

`CCCNC(=O)NCC1c2cc(OC)c(OC)cc2CCN1C(=O)NCC` (stereo not given): the activity change, negative = inhibition in assay [1] is -2.64%; in assay [2], -5.92%; in assay [3], -1.8%; in assay [4], -9.02%; in assay [5], -4.92%.

Take `O=C(c1c(OCC2CC2)cc(=O)n2c1CCOCC2)N1CCc2ccccc2C1`: the activity change, negative = inhibition was -6.08% in assay [1]; -8.53% in assay [2]; -3.56% in assay [3]; -16.2% in assay [4]; 0.706% in assay [5].

`COc1cccc(C(=O)Cn2nc3n(Cc4ccccc4)c(=O)c4ccccc4n3c2=O)c1`: the activity change, negative = inhibition in assay [1] stood at 3.69%; in assay [2] it was 0%; in assay [3], 8.22%; in assay [4], 3.88%; in assay [5] it was 4.23%.

With `CN(C)[C@@H]1CO[C@H](CNC(=O)c2ccncc2)[C@H]1O`, the activity change, negative = inhibition in assay [1] is -2.08%; in assay [2], -3.56%; in assay [3] it was 1.72%; in assay [4], 0.775%; in assay [5] it was 1.89%.

Regarding `COCC1CN(C)CC12CCN(Cc1sccc1C)CC2` (stereo not given), the activity change, negative = inhibition in assay [1] was -5.38%; in assay [2], -5.54%; in assay [3] it was -5.6%; in assay [4], -7.37%; in assay [5], -0.967%.

`Cn1nc(C(C)(C)C)cc1C(=O)NC(Cc1cccc(Cl)c1)C(=O)NCC#N` (stereo not given): the activity change, negative = inhibition in assay [1] is 5.67%; in assay [3] it was 4.02%.

For the compound `C[C@@H]1O[C@@H](O[C@H]2[C@H](O[C@H]3CO[C@@H](O[C@H]4CC[C@@]5(C)C(CC[C@]6(C)C5CC[C@]57OC[C@@]8(CC[C@](C)(CO)CC85)[C@H](O)C[C@]76C)C4(C)C)[C@H](O[C@@H]4O[C@H](CO)[C@@H](O)[C@H](O)[C@H]4O)[C@H]3O)O[C@H](CO)[C@@H](O)[C@@H]2O)[C@H](O)[C@H](O)[C@H]1O` (stereo not given in full), the activity change, negative = inhibition was -0.801% in assay [1]; -5.14% in assay [2]; -5.05% in assay [3]; -18.3% in assay [4]; 2.38% in assay [5].

With `CCc1cc2c(cc3n2CC(C)(C(=O)NC2CCCCCC2)N(c2cc(C)ccc2C)C3=O)s1` (stereo not given), the activity change, negative = inhibition in assay [1] is 4.18%; in assay [2], 0%; in assay [3], 1.21%; in assay [4] it was 9.75%; in assay [5], 3.26%.

`Cc1cc(Cl)ccc1OCCCC(=O)NO`: the activity change, negative = inhibition in assay [1] was -12% and -4.46%; in assay [2], 1.67%; in assay [3], -2.42% and 4.06%; in assay [4] it was -9.91% and 7.71%; in assay [5], 1.96% and 30%.

Turning to `CCOc1ccc(CCNC(=O)c2cc3n(n2)CC(C)(C(=O)NC2CCCC2)N(C)C3=O)cc1` (stereo not given), the activity change, negative = inhibition in assay [1] was 2.09%; in assay [2] it was 1.76%; in assay [3], 6.13%; in assay [4], 4.73%; in assay [5], 0.633%.

Take `CN(C)S(=O)(=O)N1CCCC(c2nc(-c3ccccc3)no2)CCNC(=O)CC1` (stereo not given): the activity change, negative = inhibition in assay [1] is -5.99%; in assay [2], -9.07%; in assay [3] it was -4.39%; in assay [4] it was -16.3%; in assay [5], -10.3%.
